From article PMC4336329 (PLoS ONE, 2015)
The whole screen tested about 310,000 compounds, of which about 14,000 (4.5%) showed an effect of 50% or more. Effects have a minus sign here. The list shows a part of the results.

Target: human ether-à-go-go-related gene (hERG) potassium channel (human, UniProt Q12809)
Experiment: primary screen, population patch clamp on CHO cells stably expressing hERG
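Further: peak tail current of the secondary pulse compared with the same well before compound.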

Sequence of human ether-à-go-go-related gene (hERG) potassium channel (Q12809 whole entry, looked up): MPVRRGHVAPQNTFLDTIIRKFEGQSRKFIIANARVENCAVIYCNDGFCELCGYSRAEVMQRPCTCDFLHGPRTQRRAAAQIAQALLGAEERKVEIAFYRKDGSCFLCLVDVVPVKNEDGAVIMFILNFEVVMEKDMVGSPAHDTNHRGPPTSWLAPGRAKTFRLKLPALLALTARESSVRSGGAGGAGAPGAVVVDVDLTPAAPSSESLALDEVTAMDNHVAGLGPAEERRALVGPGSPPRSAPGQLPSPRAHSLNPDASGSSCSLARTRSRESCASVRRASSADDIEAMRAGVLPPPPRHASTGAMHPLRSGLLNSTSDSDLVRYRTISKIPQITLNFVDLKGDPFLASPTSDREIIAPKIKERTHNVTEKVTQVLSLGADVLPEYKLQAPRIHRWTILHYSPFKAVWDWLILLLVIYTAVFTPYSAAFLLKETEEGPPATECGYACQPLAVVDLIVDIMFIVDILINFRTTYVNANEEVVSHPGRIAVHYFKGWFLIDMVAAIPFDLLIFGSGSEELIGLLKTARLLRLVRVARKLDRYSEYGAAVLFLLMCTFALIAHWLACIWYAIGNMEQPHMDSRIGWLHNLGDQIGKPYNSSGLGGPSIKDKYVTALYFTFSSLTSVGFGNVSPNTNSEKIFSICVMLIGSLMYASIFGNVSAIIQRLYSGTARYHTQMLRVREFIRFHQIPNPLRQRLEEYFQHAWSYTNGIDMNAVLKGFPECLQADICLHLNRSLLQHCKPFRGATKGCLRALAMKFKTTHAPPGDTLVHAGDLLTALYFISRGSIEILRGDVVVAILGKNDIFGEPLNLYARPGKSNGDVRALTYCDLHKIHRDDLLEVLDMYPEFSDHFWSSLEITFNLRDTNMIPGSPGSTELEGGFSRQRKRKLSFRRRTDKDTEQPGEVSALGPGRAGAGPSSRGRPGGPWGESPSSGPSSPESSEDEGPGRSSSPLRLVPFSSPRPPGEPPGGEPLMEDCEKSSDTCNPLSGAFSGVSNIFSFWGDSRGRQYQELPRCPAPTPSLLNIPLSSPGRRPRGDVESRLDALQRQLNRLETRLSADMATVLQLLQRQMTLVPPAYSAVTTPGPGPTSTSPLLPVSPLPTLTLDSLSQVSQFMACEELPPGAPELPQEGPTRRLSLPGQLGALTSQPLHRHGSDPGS

| Structure (SMILES) | hERG current change (%, negative = inhibition) at 10uM [%] |
| --- | --- |
| CCn1c(SCC(=O)Nc2nc3ccc(C)cc3s2)nc2c(c1=O)SC(C)C2 (stereo not drawn) | -12.6 |
| CCC(Oc1ccc(Br)cc1Cl)C(=O)Nc1nnc(C2CC2)s1 (stereo not drawn) | -4.12 |
| Oc1ccc(Nc2nc(Cl)nc(NCc3ccco3)n2)cc1 | -20 |
| O=C(CCC(=O)c1ccc(F)cc1)OCc1nnc(-c2ccc([N+](=O)[O-])cc2)o1 | -47 |
| COc1ccc(-c2cn3cccnc3n2)cc1NC(=O)c1cccs1 | -13 |
| O=C1CC(c2ccccc2)c2cc(O)ccc2O1 (stereo not drawn) | 11.1 |
| O=C(NCc1ccc2c(c1)OCO2)c1cc2ccccc2o1 | -19.5 |
| CCOC(=O)C1CCN(CC(O)COc2ccc(C(=O)CC)cc2)CC1.Cl (stereo not drawn) | -68.5 |
| COc1cccc(N2CCN(CC(=O)NC(C)c3ccccc3)CC2)c1 (stereo not drawn) | -3.41 |
| O=C(O)c1nc(N2CCOCC2)nc(N2CCOCC2)n1 | -8.37 |
| Cn1ncc(C#N)c1NC(=O)C1CC(c2ccc(Cl)cc2)=NO1 (stereo not drawn) | -8.44 |
| O=C(CCc1nc2sc3c(c2c(=O)[nH]1)CCCC3)Nc1ccccc1Cl | 7.93 |
| COCCNC(=S)N/N=C/c1c2ccccc2cc2ccccc12 | 15.5 |
| CC(=O)c1cccc(NC(=O)COC(=O)c2ccccc2C)c1 | -14.4 |
| O=c1[nH]c(=S)n(C2CC2)c(O)c1C=NCc1cccnc1 | -13.9 |
| O=S(=O)(Nc1nc2ccccc2s1)c1ccc(Cl)nc1 | 4.73 |
| CCS(=O)(=O)N1CCC(C(=O)NCCCN2CCC(Cc3ccccc3)CC2)CC1 | -65.5 |
| Cn1cccc1-c1cc(C(=O)N/N=C/c2cc(Br)ccc2O)[nH]n1 | 31.3 |
| COc1ccc(-c2csc(NC(=O)CN3C(=O)CCC3=O)n2)c(OC)c1 | -16.5 |

| Structure (SMILES) | hERG current change (%, negative = inhibition) at 10uM [%] |
| --- | --- |
| Cn1c(=O)n(C)c2cc(C(=O)c3ccccc3)ccc21 | -1.74 |
| O=C(CSc1nc2ccccc2s1)N/N=C/c1ccco1 | 11.5 |
| COc1ccc(N2CC(NC(=O)NC(C)(C)C)CC2=O)cc1 (stereo not drawn) | 8.87 |
| Cn1c(N)c(C(=O)COC(=O)c2cc(-c3ccco3)nc3ccccc23)c(=O)n(Cc2ccccc2)c1=O | -6.06 |
| CSc1nc(N(C)C)nc(N(C#N)CCOC(C)=O)n1 | 3.77 |
| COc1ccc(C(=O)NCCc2nnc3ccc(SCC(=O)NCCc4ccc(OC)c(OC)c4)nn23)cc1 | 0.371 |
| Cc1ccc(S(=O)(=O)N2CCN(C(=O)COC(=O)c3ccc(O)cc3)CC2)c(C)c1 | 0.617 |
| Cc1cc(C)n(-c2nc3ccccc3c(=O)n2OC2CCCCC2)n1 | 2.59 |
| CCOC(=O)c1[nH]c2ccc(OC)cc2c1NC(=O)CCN1CCN(Cc2ccccc2)CC1 | -57.1 |
| Cc1cccc(CC(=O)NC2CCN(C)CC2)c1 | 9.22 |
| Cc1nn(-c2ccc(C(=O)O)cc2)c(C)c1Oc1ccccc1O.O=S(=O)(O)O | -3.2 |
| Cc1c(CCC(=O)NCCCCCC(=O)O)c(=O)oc2cc3occ(-c4ccccc4)c3cc12 | -9.41 |
| COc1ccc(CCN(C)Cc2c(O)ccc3ccccc23)cc1OC | -74 |
| COc1cc(C(=O)N/N=C/c2cccc(Oc3ccccc3)c2)ccc1O | -3.79 |
| c1cc(CNc2ccc3c(c2)OCCO3)ccn1 | 14.7 |
| CN(CC(=O)Nc1cccc(F)c1)C(=O)CSc1ccccc1 | -3.67 |
| COc1cccc(-n2nnc3c(=O)n(CC(=O)NCC4CCCO4)cnc32)c1 (stereo not drawn) | 9.31 |
| CCN(CC(=O)NCCc1ccc(S(N)(=O)=O)cc1)Cc1nc2cc(OC)c(OC)cc2c(=O)[nH]1 | 0.804 |
| CC1(C)CC(NC(=O)c2ccc(-c3ccc([N+](=O)[O-])cc3)o2)CC(C)(C)N1 | -49 |

| Structure (SMILES) | hERG current change (%, negative = inhibition) at 10uM [%] |
| --- | --- |
| CSCc1cc(N2CCCC2)nc(-c2ccccc2)n1 | -23.2 |
| CCOC(=O)C1=C(C)NC(=O)NC1c1ccccc1Cl (stereo not drawn) | 1.8 |
| COc1cc2[nH]c(C(=O)N3CCC(Cc4ccccc4)CC3)cc2c(OC)c1OC | 22.4 |
| Cc1[nH]c2ccccc2c1CCN(Cc1cccnc1)C(=S)NC(C)(C)C | 15 |
| COc1ccc(N/N=C/c2c(O)n(-c3cccc(C)c3)c(=O)[nH]c2=O)cc1 | -1.72 |
| Cc1nnc(SCC(=O)NNC(=O)c2ccco2)n1-c1cccc(Cl)c1 | 9.62 |
| CN(C)CCSc1nc(N)c2c3c(sc2n1)COC(C)(C)C3 | -10.7 |
| Cc1ccc(S(=O)(=O)Nc2ccc(C(=O)NCc3cccnc3)cc2)cc1 | 5.32 |
| Cc1ccc(C(CC(=O)NCc2ccco2)c2ccccc2)c(O)c1 (stereo not drawn) | -0.367 |
| CC(=O)Nc1ccc(S(=O)(=O)Nc2cccc(-c3cn4c(n3)SCC4)c2)cc1 | 22.5 |
| CCOC(=O)c1sc2nccc(N(C)C)c2c1N=CNOC | -24.1 |
| Cc1nc(SCC(O)CCl)c([N+](=O)[O-])[nH]1 (stereo not drawn) | 2.9 |
| COc1ccc(N2CCN(C(=O)c3c(C)nn(-c4ccccc4)c3C)CC2)cc1 | -9.14 |
| CN(C)CCCN=Cc1c(O)n(CCc2ccccc2)c(=O)[nH]c1=O | -0.99 |
| COc1ccc(C(=O)c2ccc3oc(-c4ccc(OC)cc4)c(C#CCCO)c3c2)cc1 | 19.5 |
| CN1C(=O)CC(C(=O)Nc2ccc(F)cc2)SC1=Nc1ccc2c(c1)OCO2 (stereo not drawn) | 2.25 |
| Cn1ccnc1SCc1ccc([N+](=O)[O-])cc1 | -2.75 |
| Cc1cc(C)nc(NN2C(=O)C=CC2=O)n1 | 24.3 |
| Cc1cc(F)ccc1NCc1ccccc1[N+](=O)[O-] | -8.29 |
